Laboratory results reported in PubChem BioAssay AID1508624 (National Center for Advancing Translational Sciences (NCATS), 2021).
The campaign covered roughly 48,000 compounds. About 120 (0.25%) were called active. Not shown: some 4% with an inconclusive outcome. The call rests on the fitted dose curve; in most records, active means well fitted activation curve with a large enough effect; inconclusive means small, poorly fitted or top-dose-only effect, or another doubt; inactive means no such curve, though single readings can be large or run the other way. Some of the results follow.

Test: Primary qHTS for Identification of Small Molecule Activators of Huntingtin-Antisense Promoter Activity; further: nearly all actives have a fitted effect of over 55% in size
Conditions: HEK293 HTT-AS promoter firefly luciferase reporter, 24 h; series mostly up to 57.5 µM; activity change, positive = activation: at the top concentration
Outline: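 HEK293 luciferase promoter-reporter cells (2,500/well) plated 24 h, then compounds added at up to 57.5 uM final for 24 h at 37 °C. Firefly luminescence by Dual-Glo, normalized to vehicle (0%) and zero RLU (-100%).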

Activity change, positive = activation, inactive:
O=C(CCSCc1cccc(Cl)c1)NCc1ccc(F)cc1Cl -15.3%
CCc1ccccc1NC(=O)c1sc2nc(C)cc(COC)c2c1N -2.85%
Cc1ccc2[nH]c(CSc3nnc(NC(=O)c4ccccc4F)s3)cc(=O)c2c1 -25.2%
Cc1ccc(S(=O)(=O)c2[nH]c(-c3ccccc3)nc2SCCC(=O)O)cc1 -2.83%
Cc1cccc(CCNC(=O)c2ccc(CSCc3cccc(Cl)c3)o2)c1 -17.1%
Cc1cccc(N(Cc2cc3ccccc3[nH]c2=O)C(=O)c2cccc(Cl)c2)c1 -30.1%
Cc1ccc(N2CC(NC(=O)CCc3ccccc3)CC2=O)cc1C (configuration not stated) -2.67%
CCCn1c(=N)n(CC(O)COc2ccccc2OC)c2ccccc21 (configuration not stated) -9.26%
Cc1nn(CC(=O)N2CCN(c3cccc(C(F)(F)F)c3)CC2)c(=O)c2cc3sccc3n12 -13.1%
CCOc1ccc(NC(=O)c2c(Nc3ccccc3C)sc(C(=O)c3ccc(Cl)cc3)c2N)cc1 -17.4%
CCCN1CCN(c2cc3c(cc2F)c(=O)c(S(=O)(=O)c2ccc(CC)cc2)cn3CC)CC1 -3.97%
CCOc1ccc(NC(=O)CC(C)O)cc1 (configuration not stated) -4.88%
COc1ccccc1NC(=O)CSc1nc(-c2ccc(C)cc2)nc2c1Cc1c(CO)cnc(C)c1O2 -9.83%
Cc1nn2c(=O)cc(COC(=O)c3ccc(NC(=O)c4cccc(Br)c4)cc3)nc2s1 -35.4%
COc1ccc(-c2cn3nc(N4CCCC(C(=O)Nc5ccccc5OC)C4)sc3n2)cc1 (configuration not stated) 2.74%
COC(=O)c1ccccc1NC(=O)Cn1c(=O)n(CCC(=O)NCc2ccccc2OC)c(=O)c2ccccc21 -9.77%
Cc1cn([C@@H]2O[C@H](CO)[C@@H](O)[C@H]2F)c(=O)[nH]c1=O 0.566%
Cc1ccc(Cl)cc1NC(=O)CN1C(=O)CSc2ccc(S(=O)(=O)N3CCCC3)cc21 -18.4%
c1ccc2occc2c1 -6% [at 116 µM, percent change from vehicle, -100% = no light]
CCOC(=O)c1c(S(=O)(=O)NCC(=O)N2CCN(c3cc(C)ccc3C)CC2)c(C)n(C)c1C -33.8%
Cc1cccc(NC(=O)CCN2CCN(c3ccccc3F)CC2)c1 12.7%
C=Cc1ccc(Cn2c(=O)cc(C)c3c(C)nn(-c4ccccc4)c32)cc1 -22.3%
O=C(NC1(C(F)(F)F)C(=O)Nc2c1c(=O)[nH]c(=O)n2-c1ccccc1)c1ccccc1Cl (configuration not stated) -0.734%
COc1cc(OC)cc(-c2cc3nc(C)c(CCC(=O)Nc4ccc(C(C)=O)cc4)c(C)n3n2)c1 -78.1%
CSCCC(NS(=O)(=O)c1ccc2c(c1)oc(=O)n2C)C(=O)Nc1ccc(Cl)cc1 (configuration not stated) -7.91%
COc1ccc(OCC(=O)N(Cc2cccs2)c2ccc(OC)cc2)cc1 -14.5%
COCc1cc(C)nc2sc3c(c12)NC(c1ccc(O)c(OC)c1)N(c1ccccc1)C3=O (configuration not stated) -17.5%
CCn1c(C)c(C)c2cc(C(=O)NCc3ccc(OC(C)C)cc3)ccc21 -4.87%
COc1cc2c(C(=O)N3CCN(c4cccc(C(F)(F)F)c4)CC3)cn(CC(C)C)c(=O)c2cc1OC -41.1%
COc1ccc(NC(=O)Cn2c(=O)n(Cc3ccc4c(c3)OCO4)c(=O)c3ccc(C(=O)NC4CCCCC4)cc32)cc1 -16%
COc1ccc(-c2noc(N3CCC(C(=O)N4CCN(c5ccccc5F)CC4)CC3)n2)cc1 -47.7%
CCOCCCNc1nc2ccccc2n2c(CC)nnc12 4.86%
CCCN(CCC)C(=O)C(CCC(=O)OCCCN1CCN(CCOC(=O)Cc2c(C)n(C(=O)c3ccc(Cl)cc3)c3ccc(OC)cc23)CC1)NC(=O)c1ccccc1 (configuration not stated) -26%
CCOc1ccccc1CNC(=O)c1ccc(NC(=O)N2CC(C)Sc3ccccc32)cc1 (configuration not stated) -26.5%
O=C(NC1(C(F)(F)F)C(=O)Nc2c1c(=O)[nH]c(=O)n2-c1ccccc1)c1ccccc1 (configuration not stated) 6.67%
CCOc1ccc(C(=O)NCc2nc3cccnc3n2Cc2cccc(OC)c2)cc1 -5.55%
CCCN(CCC)C(=O)Cn1c(SCc2cccc(C(F)(F)F)c2)nc2cccnc21 -16.6%
N#Cc1ccccc1NC(=O)C(=O)NCCc1csc2nc(-c3cccc(F)c3)nn12 -17.5%
C=CCCCCCCCCC(=O)O -5.13%
COc1ccc(OC)c(CNC(=O)CN(c2ccc(C)cc2)S(=O)(=O)N(C)C)c1 -11.1%
Cc1cccc(NC(=O)N2CCN(C)c3ncccc32)c1C -21%
CCCN(C(=O)Cn1ncc2c1-c1ccccc1OC2)c1cccc(C)c1 -39.1%
Cc1cccc(N2CCN(c3ccc(C(=O)O)cc3NC(=O)c3cccc(Cl)c3)CC2C)c1 (configuration not stated) -11.8%
CCc1ccc(-c2nc(SCC(=O)NCC3CCCO3)c(-c3ccc(C)cc3)[nH]2)cc1 (configuration not stated) -9.51%
Cc1cccc(C)c1NC(=O)Cn1c(=O)n(CCCS(=O)(=O)C2CCCCC2)c(=O)c2ccccc21 -8.32%
CCOC(=O)C1CCN(c2c(C(=O)c3ccc(OC)cc3)cnc3ccccc23)CC1 -25%
COc1ccc(CCNC(=O)c2nc(SCc3ccccc3F)ncc2Cl)cc1OC -48.5%
CSCC[C@@H](C(=O)Nc1cccc(F)c1)N1Cc2ccccc2C1=O -12.3%
CCOCCc1nn2c(=O)cc(COC(=O)Cc3ccccc3)nc2s1 -10.4%
CCOC(=O)c1cc2c(=O)n3ccccc3nc2n(Cc2ccco2)c1=NC(=O)c1ccc(C)c(C)c1 -20.2%
CN(c1ccccc1)S(=O)(=O)c1nnc(NC(=O)COc2ccccc2)s1 -16.1%
O=C(Cn1c(=O)oc2cc(S(=O)(=O)N3CCCCCC3)ccc21)Nc1ccc(F)cc1F -34.6%
O=C(Nc1cc2c(cc1C(=O)c1cccc(Br)c1)OCCO2)c1ccccc1F -26.6%
CN(C(=O)Cn1cnc2onc(-c3ccc(F)cc3)c2c1=O)c1ccccc1Cl -16.9%
Cc1cc(C)cc(-n2c(C)cc(C(=O)C(=O)Nc3nnc(C)s3)c2C)c1 -9.75%
Cc1cccc(-c2nc(C)c(CCNC(=O)C(=O)Nc3cccc(Cl)c3C)s2)c1 15.2%
O=C(Cn1cc(SCc2ccc(C(F)(F)F)cc2)c2ccccc21)N1CCOCC1 7.91%
O=C(NCc1ccccc1)c1cc2sccc2n1Cc1ccc(Cl)cc1 -12.7%
Cc1ccc(-c2nc(-c3cc4c([nH]c3=O)CC(C)(C)CC4=O)sc2C)cc1 -13.2%
CCCCSc1nc(-c2ccc(OC)cc2)ccc1C#N -31.1%
COC(=O)c1ccccc1NC(=O)Cn1c(CCC(=O)O)ccc1-c1cccs1 -30.5%
CCOc1ccc(N(C)C(=O)CS(=O)(=O)c2cccc3nsnc23)cc1 -8.95%
COC(=O)CSc1ncc2c(n1)-c1ccccc1N(Cc1ccccc1C)S2(=O)=O 17.4%
O=C1CCC(N2C(=O)c3ccccc3C2=O)C(=O)N1 (configuration not stated)
Cc1ccc2occ(CC(=O)N(Cc3ccccc3Cl)C3CCS(=O)(=O)C3)c2c1 (configuration not stated) -17%
CCOC(=O)c1cccc(NC(=O)NCc2cccn2Cc2ccccc2)c1 -36.3%
O=C(CSc1oc(-c2ccccc2)nc1S(=O)(=O)c1ccc(Cl)cc1)Nc1ccc(F)cc1 9.53%
CC(=O)/C=C/C=C1/C2CCC(C2)C1(C)C (configuration not stated) -0.203%
CC(=O)c1ccc(NC(=O)CN2C(=O)CCc3ccccc32)cc1 -2.3%
Cc1ccc(Cn2cc(CCC(=O)NC3CCC(C)CC3)c3ccccc32)cc1 (configuration not stated) 10.1%
CC1CCC(Nc2nc3c(-c4ccc(Cl)cc4)nnn3c3ccccc23)CC1 (configuration not stated) -6.99%
CC(=O)Nc1ccc(/C=C/c2nc(-c3ccccc3O)n(-c3ccccc3)n2)cc1 -15.5%
Cn1c(=O)oc2cc(S(=O)(=O)N3CCCC(C(=O)NCCc4ccc(Cl)cc4)C3)ccc21 (configuration not stated) -36.3%
COc1ccccc1CNS(=O)(=O)c1ccc2c(c1)NC(=O)C(C)C(=O)N2 (configuration not stated) -19.4%
Cc1nn2c(=O)cc(COC(=O)c3ccco3)nc2s1 -4.27%
COc1cccc(CNCCSc2nnnn2C)c1OCc1ccccc1Cl -21.9%
COc1cccc(CNS(=O)(=O)c2ccc3c(c2)CCN3C(=O)C2CCC2)c1 -26.4%
O=C(Nc1ccc(F)cc1)N1CCN(c2ccccc2F)CC1 18.7%
Cc1cc(=O)[nH]c2nnc(SCc3ccc(F)cc3)n12 -8.5%
COc1ccc(N2C(=O)CS(=O)(=O)C23C(=O)N(Cc2cccc(F)c2)c2ccccc23)cc1OC (configuration not stated) -25.3%
O=C(CC(c1cccs1)N1Cc2ccccc2C1=O)Nc1ccc(F)c(F)c1 (configuration not stated) -13%
Cc1ccc(C)c(S(=O)(=O)c2nnn3c2nc(Nc2ccc(C)c(C)c2)c2sccc23)c1 -6.31%
COc1ccc(Cn2c(SCC(=O)NCc3ccc(Cl)cc3)nc3ccsc3c2=O)cc1 -8.58%
CCOC(=O)c1ccc(-n2c(CCC(=O)O)ccc2-c2ccc(Br)cc2)cc1 -22.5%
CC(C)(C)CC(C)(C)c1ccc(O)c(-n2nc3ccccc3n2)c1 -4.42%
O=C(NCc1cccs1)c1ccc(Cn2c(SCc3ccccc3)nc3cccnc32)cc1 -12%
O=C(Nc1c(C(=O)N2CCN(c3ccccc3)CC2)oc2ccccc12)c1ccc(Br)o1 -16.8%
Cc1cc(Cl)ccc1OCC(=O)Nc1c(Cl)ccc2nsnc12 -22.5%
COc1ccc2nc3oc(C(=O)N4CCN(c5cc(C)ccc5C)CC4)cc3cc2c1 25.4%
CCC(=O)N1CCc2cc(S(=O)(=O)CCC(=O)Nc3ccc(OC(F)(F)F)cc3)ccc21 -24.9%
COc1ccc(CC(=O)Nc2sc3c(c2C(=O)Nc2cccc(Cl)c2)CCCCC3)cc1 -79.3%
COc1ccccc1N1CCN(C(=O)C(CCSC)NS(=O)(=O)c2ccc3c(c2)oc(=O)n3C)CC1 (configuration not stated) -24%
CC(C)Oc1ccc(CNC(=O)CCCN2C(=O)CCn3nc(-c4cccn4C)cc32)cc1 -5.87%
O=C1NCCN1CCN1CCC(c2cn(-c3ccc(F)cc3)c3ccc(Cl)cc23)CC1 -39.9%
O=C(c1ccco1)n1nc(-c2ccccc2)nc1NCc1ccc(Cl)cc1 1.19%
Cc1nn(-c2ccccc2)c2c1N(CCCC(=O)NCc1ccc(N(C)C)cc1)C(=O)CS2 -17.8%
CCc1ccc(NCc2cc3ccc(OC)cc3n(CC(=O)Nc3ccc(F)cc3F)c2=O)cc1 -1.42%
